Data published in patent US20130205416A1 (priority 2010, published 2013).

Test system: murine gammaherpes virus 68 (MHV-68)
Format: cell-based
Settings: data not shown

In the case of WLVFFVIFYFFR [FP1], the antiviral effects is reported as “no antiviral effects”.
